Reference: PubChem BioAssay (NCATS)
Inconclusive means that the source gave no clear call. Such entries were picked first, then a sample of the others. A potency beside an inconclusive call is a rough fit, not a confirmed value. For some of these results: A note “side channel” means that the fit belongs to a control or component signal, not to the main read-out. The source made the active and inactive calls. Unless noted, calls follow the shape of the dose curve; as a rule, active = well fitted curve in the direction sought with a large enough effect; inconclusive = small, poorly fitted or top-dose-only effect, or another doubt; inactive = no such curve, though single readings can be large; an effect the other way counts as inactive or inconclusive.

Tests used:
[1] = qHTS of pediatric cancer cell lines to identify multiple opportunities for drug repurposing: Primary screen for TC32 cells (AID 1347089); also: nearly all actives have a fitted effect of over 60% in size
Method in brief: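 qHTS, TC32, 48 h drug treatment, CellTiter-Glo luminescence as a proxy for metabolically active cells; primary top concentration 46 µM (MIPE 11-pt, NPC 8-pt); confirmatory 11-pt.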

[2] = qHTS of pediatric cancer cell lines to identify multiple opportunities for drug repurposing: Primary screen for DAOY cells (AID 1347090); settings: DAOY medulloblastoma viability, CellTiter-Glo luminescence, 48 h; activity change, negative = cytotoxic: at 46 µM (top of the series) unless noted; also: nearly all actives have a fitted effect of over 55% in size
Method in brief: (§1)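 Cell viability, CellTiter-Glo luminescence; 500-1,000 cells/well, 8- or 11-point titration, 48 h compound exposure at 37 degrees C, 5% CO2. Controls: DMSO neutral, bortezomib 2.3 µM final as positive.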

[3] = qHTS of pediatric cancer cell lines to identify multiple opportunities for drug repurposing: Primary screen for BT-37 cells (AID 1347094)
Method in brief: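 ATP-based luminescence (CellTiter-Glo) quantifies viability after a 48-hour exposure. Compounds are dosed across 8 or 11 final concentrations; DMSO and 2.3 µM bortezomib serve as controls.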

[4] = qHTS of pediatric cancer cell lines to identify multiple opportunities for drug repurposing: Primary screen for SJ-GBM2 cells (AID 1347091)
Method in brief: as §1

[5] = qHTS of pediatric cancer cell lines to identify multiple opportunities for drug repurposing: Primary screen for SK-N-MC cells (AID 1347093); settings: SK-N-MC viability, CellTiter-Glo luminescence, 48 h; activity change, negative = cytotoxic: at 46 µM (top of the series)
Method in brief: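 Metabolically active cells were quantified by ATP-dependent luminescence (CellTiter-Glo, 15 min at room temperature) following 48 h treatment. Cells had been plated at 500-1,000 per well and settled for 5 h beforehand.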

[6] = molecular target: Tyrosine-protein phosphatase non-receptor type substrate 1 (Homo sapiens) + Leukocyte surface antigen CD47 (Homo sapiens) (UniProt P78324+Q08722); experiment: CD47-SIRPalpha protein protein interaction - HTRF assay qHTS validation (AID 1347058; active = well fitted curve in the direction sought with a large enough effect in the signal ratio, not every such curve was filed as active; inconclusive = small, poorly fitted or top-dose-only effect, or effect the other way, or a change in a side signal; inactive = no such curve, though single readings can be large or run the other way; the % refers to the signal ratio)
Sequence of UniProt P78324 (P78324 whole entry, looked up, the tested form may be a part): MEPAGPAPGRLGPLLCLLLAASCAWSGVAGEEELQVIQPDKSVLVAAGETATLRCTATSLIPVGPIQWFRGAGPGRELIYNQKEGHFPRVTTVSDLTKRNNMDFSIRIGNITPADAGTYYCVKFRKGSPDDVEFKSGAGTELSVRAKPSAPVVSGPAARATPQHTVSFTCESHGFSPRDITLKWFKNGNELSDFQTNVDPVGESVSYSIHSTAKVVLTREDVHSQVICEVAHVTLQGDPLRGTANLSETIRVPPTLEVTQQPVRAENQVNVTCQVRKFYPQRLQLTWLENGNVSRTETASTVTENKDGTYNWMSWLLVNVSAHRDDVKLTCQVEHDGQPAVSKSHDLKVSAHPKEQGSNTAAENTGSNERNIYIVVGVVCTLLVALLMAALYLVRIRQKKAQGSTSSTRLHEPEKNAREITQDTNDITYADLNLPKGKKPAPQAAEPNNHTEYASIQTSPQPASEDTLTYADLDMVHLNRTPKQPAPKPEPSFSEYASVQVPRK
Sequence of UniProt P78324 (Q08722 whole entry, looked up, the tested form may be a part): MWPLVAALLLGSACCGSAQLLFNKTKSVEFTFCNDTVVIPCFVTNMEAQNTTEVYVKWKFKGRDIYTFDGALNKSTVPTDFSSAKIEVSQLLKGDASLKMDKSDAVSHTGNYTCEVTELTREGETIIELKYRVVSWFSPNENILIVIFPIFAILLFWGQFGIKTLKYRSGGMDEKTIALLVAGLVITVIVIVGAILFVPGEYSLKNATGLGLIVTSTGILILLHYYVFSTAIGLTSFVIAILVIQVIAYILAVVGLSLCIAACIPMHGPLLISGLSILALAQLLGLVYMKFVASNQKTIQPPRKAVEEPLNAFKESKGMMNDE
Method in brief: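 Soluble extracellular domains (6His-CD47, Avi-tag-biotinylated SIRPalpha) in PBS pH 7.4 with 0.05% IGEPAL CA-630. Compounds were preincubated 30 min at RT with CD47 and anti-His-Eu, then SIRPalpha and SAV-XL665 were added. TR-FRET 665/615 ratio.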
Potency is read from the fitted curve at half-maximal effect; tags tell the direction and shape of the fitted curve.

**Q.** Which results are given for `O=C(NC1CC1)c1cccc(-c2ccc3c(NC(=O)C4CC4)n[nH]c3c2)c1`?
**A.** Potency [1]: active: 9.3 µM; Potency [2]: active: 1.18 µM

**Q.** Which results are given for `NC(=O)c1ccc2nc(-c3ccc(Oc4ccc(Cl)cc4)cc3)[nH]c2c1`?
**A.** Potency [1]: inconclusive: 16.5 µM [cytotoxic, partial curve, poor fit]; Potency [2]: inconclusive: 23.5 µM [cytotoxic, partial curve, poor fit]; Potency [3]: inconclusive: 0.385 µM [cytotoxic, partial curve]

**Q.** Which Potency [1] does the source give for `Cc1ccc(C2=Nc3ccc(Cl)cc3OC2)cc1` here?
**A.** The Potency was inconclusive: 16.5 µM [cytotoxic, partial curve, poor fit].

**Q.** And the Potency [2]?
**A.** Its Potency is inconclusive: 29.6 µM [cytotoxic, single point].

**Q.** What about the Potency [4] of the same compound?
**A.** Its Potency is active: 23.5 µM.

**Q.** And the Potency [5]?
**A.** The Potency was inconclusive: 3.72 µM [cytotoxic, full curve, poor fit].

**Q.** What about the Potency [3] of the same compound?
**A.** The Potency was inconclusive: 15.3 µM [cytotoxic, partial curve].

**Q.** Which Potency [6] does the source give for `CCOC(=O)Nc1ccc(NCc2ccc(F)cc2)nc1N` here?
**A.** Its Potency is inconclusive: 8.26 µM [side channel, falling, partial curve].

**Q.** What about the Potency [5] of the same compound?
**A.** The Potency was inconclusive: 37.2 µM [cytotoxic, single point].

**Q.** With `Nc1ccn([C@@H]2O[C@H](CO)[C@@H](O)[C@H]2O)c(=O)n1` as the compound, how does the Potency [1] read?
**A.** The Potency was active: 0.0294 µM.

**Q.** What about the Potency [2] of the same compound?
**A.** Its Potency is inconclusive: 0.469 µM [cytotoxic, full curve, poor fit].

**Q.** What about the Potency [4] of the same compound?
**A.** The Potency was inconclusive: 0.059 µM [cytotoxic, full curve].

**Q.** What about the Potency [5] of the same compound?
**A.** Its Potency is inconclusive: 29.6 µM [cytotoxic, single point].
